{"source": "the supplement of paper PMC3334620", "note": "Whole data set: some 33,000 sequences, median “E-score (-0.5 to 0.5)” near -0.054, cut for the highest 2% near 0.39. Some of the results follow.", "data": [{"target": "Ylr278c (UniProt Q05854)", "assay": "PBM E-score (8-mer binding enrichment) (E-score (-0.5 to 0.5)); higher = stronger / more preferred TF binding; most listed sequences are background and not binding sites", "settings": "protein concentration: 200 nM; construct: GST-DNA-binding domain", "method_in_brief": "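GST-tagged yeast TFs (full-length or DNA-binding domain) were made by PURExpress in vitro transcription/translation and applied at about 100-200 nM to universal all-10-mer Agilent arrays. The arrays were made double-stranded by primer extension, on fresh or once-stripped slides. Bound protein was detected with fluorescent anti-GST, and scans were normalised with masliner. Each ungapped eight-base word, pooled with its reverse complement, received an E-score (modified Wilcoxon-Mann-Whitney statistic) from the Universal PBM Analysis Suite.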", "values": [{"sequence": "TCAGCAAA", "PBM E-score": -0.104}, {"sequence": "ATTTCCTA", "PBM E-score": -0.0235}, {"sequence": "AAGTTTCT", "PBM E-score": -0.169}, {"sequence": "ATCCGTCA", "PBM E-score": 0.159}, {"sequence": "ACGGGCGG", "PBM E-score": 0.299}, {"sequence": "CTGACTGC", "PBM E-score": -0.113}, {"sequence": "GTGGAGGA", "PBM E-score": -0.0524}, {"sequence": "GACACGCC", "PBM E-score": 0.066}, {"sequence": "AGCTGGTA", "PBM E-score": -0.144}, {"sequence": "CTCAGTCA", "PBM E-score": -0.282}, {"sequence": "GGAAATTA", "PBM E-score": 0.22}, {"sequence": "TACTCAGA", "PBM E-score": -0.0279}, {"sequence": "ATTAGAGC", "PBM E-score": -0.0167}, {"sequence": "ACATCGAT", "PBM E-score": -0.137}, {"sequence": "ACTAAGGA", "PBM E-score": -0.157}, {"sequence": "TCGCCCGA", "PBM E-score": 0.101}, {"sequence": "CGGATAGC", "PBM E-score": 0.175}, {"sequence": "CCGTCAAA", "PBM E-score": 0.133}, {"sequence": "GATTTGAA", "PBM E-score": -0.062}, {"sequence": "GAGAGCCC", "PBM E-score": -0.16}, {"sequence": "ACAGTCTG", "PBM E-score": -0.121}, {"sequence": "GAGCCAGA", "PBM E-score": -0.0255}, {"sequence": "TACGATAA", "PBM E-score": -0.114}, {"sequence": "CAAATTTC", "PBM E-score": -0.0917}, {"sequence": "AACTCGCT", "PBM E-score": 0.0858}, {"sequence": "AGCTCGCA", "PBM E-score": -0.0507}, {"sequence": "GACCACTC", "PBM E-score": 0.0871}, {"sequence": "ACATACCG", "PBM E-score": 0.0629}, {"sequence": "AGCATCAT", "PBM E-score": -0.127}, {"sequence": "AAAGGAAG", "PBM E-score": -0.0494}, {"sequence": "GCCTGATA", "PBM E-score": -0.235}, {"sequence": "CTCGCGAA", "PBM E-score": -0.0696}, {"sequence": "GTACCTCA", "PBM E-score": -0.28}, {"sequence": "CTAGGCAC", "PBM E-score": -0.208}, {"sequence": "GTGAGCCA", "PBM E-score": -0.292}, {"sequence": "ATAAATAA", "PBM E-score": 0.0464}, {"sequence": "CAATGGAA", "PBM E-score": 0.0782}, {"sequence": "CCTCTTCA", "PBM E-score": -0.238}, {"sequence": "ATAAGTAA", "PBM E-score": 0.0323}, {"sequence": "CGGGATCC", "PBM E-score": 0.368}, {"sequence": "CCGTGAAA", "PBM E-score": 0.194}, {"sequence": "CTTTACTA", "PBM E-score": 0.0323}, {"sequence": "AACTTGCA", "PBM E-score": -0.179}, {"sequence": "GCCCCTGA", "PBM E-score": -0.191}, {"sequence": "ACGGTTTG", "PBM E-score": 0.0382}, {"sequence": "AATTAGCC", "PBM E-score": 0.0197}, {"sequence": "AGATTATG", "PBM E-score": 0.0457}, {"sequence": "AGCGTGGG", "PBM E-score": -0.254}, {"sequence": "ACATCATA", "PBM E-score": -0.0593}, {"sequence": "CCATCCCC", "PBM E-score": 0.156}, {"sequence": "CACATGCG", "PBM E-score": 0.111}, {"sequence": "CTCTTAGA", "PBM E-score": -0.168}, {"sequence": "TCGTCACA", "PBM E-score": -0.105}, {"sequence": "AGAAAAAC", "PBM E-score": 0.0493}, {"sequence": "CCGGTCCC", "PBM E-score": 0.355}, {"sequence": "ATTACGAG", "PBM E-score": -0.0563}, {"sequence": "GTAACGAC", "PBM E-score": 0.114}, {"sequence": "TACCAAAA", "PBM E-score": -0.112}, {"sequence": "CATTCTTC", "PBM E-score": 0.0143}, {"sequence": "CACTAGCA", "PBM E-score": -0.317}, {"sequence": "AGATACGA", "PBM E-score": -0.0945}, {"sequence": "ATGGGCTG", "PBM E-score": -0.205}, {"sequence": "TCGGCCAA", "PBM E-score": 0.135}, {"sequence": "CGAATGGC", "PBM E-score": 0.189}, {"sequence": "CAGGGACG", "PBM E-score": -0.203}, {"sequence": "CAGCCCAA", "PBM E-score": -0.0577}, {"sequence": "CCCACTGC", "PBM E-score": -0.0779}, {"sequence": "GGCCACGA", "PBM E-score": 0.0243}, {"sequence": "TAGCTCCA", "PBM E-score": -0.104}, {"sequence": "AGTGGCGG", "PBM E-score": 0.231}, {"sequence": "CGAACCGA", "PBM E-score": 0.109}, {"sequence": "TCGTGCCA", "PBM E-score": -0.159}, {"sequence": "CCACTTTC", "PBM E-score": -0.136}, {"sequence": "AATCACCA", "PBM E-score": 0.0335}, {"sequence": "ACAGGCCC", "PBM E-score": -0.189}, {"sequence": "AACTAAAT", "PBM E-score": -0.0699}, {"sequence": "GCTGGCCC", "PBM E-score": -0.0263}, {"sequence": "CTTTACAC", "PBM E-score": 0.022}, {"sequence": "AGATATGC", "PBM E-score": -0.00585}, {"sequence": "AAGCGTCC", "PBM E-score": -0.275}, {"sequence": "CAGCAGAG", "PBM E-score": -0.234}, {"sequence": "AAGGTACA", "PBM E-score": -0.244}, {"sequence": "AAAAGTCA", "PBM E-score": -0.157}, {"sequence": "CGCTAAAG", "PBM E-score": -0.0186}, {"sequence": "ACTTGTGC", "PBM E-score": 0.00801}, {"sequence": "CAAAGAGA", "PBM E-score": -0.174}, {"sequence": "AAATCCTC", "PBM E-score": -0.0805}, {"sequence": "ATAACTCC", "PBM E-score": 0.378}, {"sequence": "TCGTTGAA", "PBM E-score": -0.196}, {"sequence": "CATATACA", "PBM E-score": -0.0818}, {"sequence": "CTAGGTAC", "PBM E-score": -0.176}, {"sequence": "ACCGAGCT", "PBM E-score": 0.0592}, {"sequence": "GGATGCCC", "PBM E-score": 0.0741}, {"sequence": "ATGGTCAA", "PBM E-score": -0.206}, {"sequence": "CGCAGACA", "PBM E-score": -0.00384}, {"sequence": "CATAGTGA", "PBM E-score": -0.217}, {"sequence": "CATCCCAG", "PBM E-score": -0.192}, {"sequence": "ATATTCCA", "PBM E-score": 0.0484}, {"sequence": "CTGCACCC", "PBM E-score": 0.00118}, {"sequence": "ATGACGGC", "PBM E-score": 0.123}, {"sequence": "CGAGGAAA", "PBM E-score": 0.0788}, {"sequence": "CTATTTTC", "PBM E-score": 0.0457}, {"sequence": "GCGCTGAC", "PBM E-score": 0.0851}, {"sequence": "GTCACCTA", "PBM E-score": -0.286}, {"sequence": "GTCAGTCA", "PBM E-score": -0.103}, {"sequence": "CTGTATAC", "PBM E-score": -0.114}, {"sequence": "ACTTAATC", "PBM E-score": -0.121}, {"sequence": "ACGATTGC", "PBM E-score": 0.0419}, {"sequence": "GGCATCAC", "PBM E-score": 0.0292}, {"sequence": "GGTATCAC", "PBM E-score": -0.115}, {"sequence": "GTACAGCA", "PBM E-score": -0.127}, {"sequence": "ATACACAT", "PBM E-score": -0.212}, {"sequence": "ACAGATAC", "PBM E-score": -0.00303}, {"sequence": "AGGTTTTC", "PBM E-score": -0.0425}, {"sequence": "AGCCTAGG", "PBM E-score": -0.138}, {"sequence": "AATTCGGT", "PBM E-score": 0.185}, {"sequence": "ACCTTAAA", "PBM E-score": -0.022}, {"sequence": "GACGGTTA", "PBM E-score": -0.00588}, {"sequence": "GAATAATA", "PBM E-score": 0.104}, {"sequence": "ACAAGGAT", "PBM E-score": -0.204}, {"sequence": "CTACGTAC", "PBM E-score": -0.091}, {"sequence": "ACGGAACC", "PBM E-score": 0.213}, {"sequence": "CTGGTGAA", "PBM E-score": -0.198}, {"sequence": "CATTATCG", "PBM E-score": -0.0764}, {"sequence": "ATCGGTCA", "PBM E-score": 0.0639}, {"sequence": "AAAGCGAC", "PBM E-score": 0.031}, {"sequence": "ATAAAAAG", "PBM E-score": 0.093}, {"sequence": "GGGAATAA", "PBM E-score": 0.261}, {"sequence": "CCATCGCC", "PBM E-score": 0.075}, {"sequence": "CACGGTGC", "PBM E-score": -0.115}, {"sequence": "ACGACCCG", "PBM E-score": -0.0338}, {"sequence": "ACGGGGGA", "PBM E-score": 0.0207}, {"sequence": "CCTATACA", "PBM E-score": -0.267}, {"sequence": "CGTCCCCA", "PBM E-score": 0.0148}, {"sequence": "GGATTTGA", "PBM E-score": 0.107}, {"sequence": "CTCTGCAC", "PBM E-score": -0.0702}, {"sequence": "AAAGCACT", "PBM E-score": 0.0134}, {"sequence": "AATACGCC", "PBM E-score": 0.223}, {"sequence": "CCGCTATC", "PBM E-score": 0.217}, {"sequence": "CCCAAACC", "PBM E-score": 0.165}, {"sequence": "CAATAATA", "PBM E-score": 0.0542}, {"sequence": "AAGTGGAA", "PBM E-score": -0.169}, {"sequence": "CAGCCTTA", "PBM E-score": -0.181}, {"sequence": "CGAACCTC", "PBM E-score": 0.00904}, {"sequence": "ACTGGGCC", "PBM E-score": -0.0331}, {"sequence": "AACGGTGC", "PBM E-score": -0.0596}, {"sequence": "AGCACCGC", "PBM E-score": 0.121}, {"sequence": "AGCTGAAG", "PBM E-score": -0.171}, {"sequence": "TCATTCAA", "PBM E-score": -0.146}, {"sequence": "GGAGTGAA", "PBM E-score": 0.193}, {"sequence": "GTGTCGGA", "PBM E-score": 0.417}, {"sequence": "TAGAAGCA", "PBM E-score": -0.355}, {"sequence": "AGGTGTTG", "PBM E-score": -0.061}, {"sequence": "AACCATAA", "PBM E-score": -0.102}, {"sequence": "ACCGCACC", "PBM E-score": 0.285}, {"sequence": "CTGAGGGA", "PBM E-score": -0.205}, {"sequence": "GCAGTTTA", "PBM E-score": -0.148}, {"sequence": "GTACGCAA", "PBM E-score": -0.169}, {"sequence": "CCCGGCAC", "PBM E-score": 0.088}, {"sequence": "CCCAAGTA", "PBM E-score": -0.129}, {"sequence": "CTAGCAGA", "PBM E-score": -0.195}, {"sequence": "AATCAAGG", "PBM E-score": 0.104}, {"sequence": "GGGACCTA", "PBM E-score": 0.0298}, {"sequence": "CGCACACG", "PBM E-score": 0.124}, {"sequence": "AGAGTCTA", "PBM E-score": -0.358}, {"sequence": "ATTTAAAA", "PBM E-score": 0.114}, {"sequence": "GTCAAGAA", "PBM E-score": -0.137}, {"sequence": "ATTGTGAC", "PBM E-score": -0.137}, {"sequence": "AGGCGCAT", "PBM E-score": 0.0965}, {"sequence": "AGTCACGG", "PBM E-score": 0.188}, {"sequence": "CTAATTCC", "PBM E-score": 0.277}, {"sequence": "CACACGCC", "PBM E-score": 0.107}]}]}
